Measurements as given in PubChem BioAssay AID485364 (National Center for Advancing Translational Sciences (NCATS), 2010).
Out of some 360,000 compounds screened, about 11,000 (3.1%) were called active. The shares of active, inactive and inconclusive entries below differ from those in the screen. The call rests on the fitted dose curve; in most records, active means well fitted inhibition curve with a large enough effect; inconclusive means small, poorly fitted or top-dose-only effect; inactive means no such curve, though single readings can be large or run the other way. No potency is given beside an inconclusive call; the fits are too rough.

Target: Schistosoma mansoni thioredoxin glutathione reductase (TGR) (UniProt Q962Y6)
Test: qHTS Assay for the Inhibitors of Schistosoma Mansoni Peroxiredoxins; further: nearly all actives have a fitted effect of over 60% in size
Settings: purified TGR, DTNB reduction, TNB absorbance 405 nm; series mostly up to 114 µM
How it was run: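 Kinetic colorimetric format: TGR-catalysed, NADPH-driven DTNB reduction monitored via TNB absorbance. Enzyme dispensed at 20 nM; compound exposure 15 min at room temperature before reaction start.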
Potency means the concentration at half of the fitted maximal effect; tags describe the fitted curve by direction and shape.

Row | SMILES | Potency
1 | Cc1nc(NC2=NCN(Cc3ccc4c(c3)OCO4)CN2)nc2ccccc12 | inconclusive [inhibitor, partial curve]
2 | c1ccc(C2CC3CC(c4ccco4)N2O3)cc1 (stereo unspecified) | active: 35.5 µM
3 | O=C(c1ccco1)N1CCN(Cc2cccc(C(F)(F)F)c2)CC1 | inconclusive [inhibitor, partial curve]
4 | O=C(Nc1cccc(Cl)c1)c1c(NC(=O)C(F)(F)F)sc2c1CCCC2 | inconclusive [inhibitor, single point]
5 | O=C(c1ccc(Cl)c(S(=O)(=O)N2CCOCC2)c1)N(Cc1ccco1)Cc1cccs1 | inconclusive [inhibitor, partial curve]
6 | CCOC(=O)c1cnc2sc3c(n2c1=O)CCCC3 | inactive
7 | O=C1COc2ccc(C(=O)COC(=O)c3nc(Cl)ccc3Cl)cc2N1 | active: 14.1 µM
8 | O=C(COC(=O)c1nc(Cl)ccc1Cl)c1ccc[nH]1 | inactive
9 | NCCSC1CC(=O)N(c2ccc(F)cc2)C1=O (stereo unspecified) | inconclusive [inhibitor, partial curve, poor fit]
10 | COc1ccc(CNS(=O)(=O)c2ccc3c(c2)NC(=O)C(C)S3)cc1 (stereo unspecified) | inactive
11 | COc1cc(/C=C(\C#N)C(=O)Nc2ccc3c(c2)OCCO3)ccc1O | inactive
12 | O=C(Nc1ccccn1)c1sc2cc([N+](=O)[O-])ccc2c1Cl | inactive
13 | Cc1ccc(C2C=C(c3ccc4c(c3)OCO4)Nc3ncnn32)cc1 (stereo unspecified) | inconclusive [inhibitor, partial curve]
14 | CC1CN(S(=O)(=O)c2cccc(C(=O)NCc3ccco3)c2)CC(C)O1 (stereo unspecified) | inactive
15 | Cc1cccc(C)c1-n1ncc(C(=O)Nc2ccc3c(c2)OCCO3)c1C1CCN(C(=O)OC(C)(C)C)CC1 | inactive
16 | COc1cc(C)c(Cl)cc1S(=O)(=O)NCC1CCCO1 (stereo unspecified) | inconclusive [inhibitor, single point]
17 | Oc1ccc(COC2CCN(Cc3ccccc3)C2)c2cccnc12 (stereo unspecified) | active: 44.7 µM
18 | O=c1[nH]c(O)c(N=Nc2ccc(SC(F)F)cc2)c(=O)[nH]1 | inactive
19 | Cc1ccc(OCC(=O)NCCNC(=O)c2ccccn2)cc1 | inactive
20 | CN(C)S(=O)(=O)c1ccc2nc(NC(=O)c3cccnc3)sc2c1 | inactive
21 | Cc1cccc(NC(=O)c2cnn3ccccc23)c1C | inactive
22 | CC1CCCCC12NC(=O)N(CC(=O)NCCc1c[nH]c3ccccc13)C2=O (stereo unspecified) | inactive
23 | Cc1ccc(NC(=S)Nc2cc(C)on2)cc1 | inactive
24 | COC(=O)C(C)Sc1ncnc2c1nnn2-c1ccc(F)cc1 (stereo unspecified) | inconclusive [inhibitor, partial curve]
25 | CC(C)(C)Nc1c(-c2ccc(O)cc2)nc2ccc(Cl)cn12 | inconclusive [inhibitor, partial curve]
26 | O=C(O)c1ccc(COc2ccc3c4c(c(=O)oc3c2)CCC4)o1 | inconclusive [inhibitor, partial curve]

Row | SMILES | Potency
27 | Cc1ccc(S(=O)(=O)NCc2ccccn2)c(C)c1C | inconclusive [inhibitor, full curve, poor fit]
28 | O=c1c2ccccc2sn1-c1cc(S(=O)(=O)N2CCOCC2)ccc1N1CCCC1 | inconclusive [inhibitor, full curve]
29 | COc1ccc(/C=C/C(=O)OCC(=O)c2c[nH]c3ccccc23)cc1 | inactive
30 | CCCNC(=O)C/C(C)=N/NC(=O)C(=O)Nc1ccccn1 | inconclusive [inhibitor, partial curve]
31 | CCOC(=O)c1c(C)[nH]c(C)c1S(=O)(=O)N1CCC(C(=O)NCc2ccc(F)cc2)CC1 | inactive
32 | COc1ccc(CCNC(=O)c2ccc(N(C)S(=O)(=O)c3ccc(C)cc3)cc2)cc1OC | inactive
33 | COc1ccc(OCC(=O)Nc2ccc(NC(=O)c3cccs3)c(OC)c2)cc1 | inactive
34 | CCOc1cc(C(=O)O)ccc1OCCOc1ccccc1 | inconclusive [inhibitor, partial curve]
35 | CC(C)NC1=C(Cl)C(=O)c2ccccc2C1=O | active: 28.2 µM
36 | CCOc1ccc(CN2CCNC(=O)C2CC(=O)N(C)C2CCCCC2)cc1 (stereo unspecified) | inconclusive [inhibitor, partial curve]
37 | CC(C)CCNC(=O)C(c1ccncc1)N(Cc1cccs1)C(=O)Cn1nnc(-c2ccc(F)cc2)n1 (stereo unspecified) | inconclusive [inhibitor, partial curve]
38 | COc1cc2c(cc1NC(=O)/C=C/c1ccc([N+](=O)[O-])cc1)oc1ccccc12 | inconclusive [inhibitor, single point]
39 | CCn1nc(C)c(NC(=O)CCCSc2nc(-c3ccco3)cc(C(F)(F)F)n2)c1C | active: 50.1 µM
40 | COc1ccc(Cl)cc1-c1n[nH]c(=S)n1Cc1ccccc1 | inactive
41 | C=CCNCc1ccccc1[N+](=O)[O-] | inconclusive [inhibitor, partial curve]
42 | O=C(CC1C(=O)OCCN1Cc1ccccc1)Nc1cccc(Cl)c1 (stereo unspecified) | inconclusive [inhibitor, partial curve]
43 | COc1ccc(NC(=S)Nc2cc(C(F)(F)F)ccc2F)cc1 | inconclusive [inhibitor, partial curve, poor fit]
44 | O=C(CN1CCOCC1)c1ccc2cc[nH]c2c1 | inconclusive [inhibitor, partial curve]
45 | COc1ccc(/C=C/C(=O)N2CCN(c3ccccn3)CC2)c(OC)c1OC | inactive
46 | O=C1[C@@H]2C3C=CC(O3)[C@@H]2C(=O)N1c1ccccc1 | inconclusive [inhibitor, full curve, poor fit]
47 | CCOC(=O)N1CCN(C(=O)CSc2nnc(Cc3cccn3C)n2CCc2ccccc2)CC1 | inconclusive [inhibitor, partial curve]
48 | COc1ccc(OC2CCN(S(=O)(=O)c3cccc(F)c3)CC2)cc1 | inactive
49 | COc1cc(OC)cc(C(=O)NC(=S)NCc2ccco2)c1 | inconclusive [inhibitor, partial curve]
50 | COc1ccc(NC(=O)C2=C(C)Nc3ncnn3C2c2sccc2C)cc1 (stereo unspecified) | inactive
51 | O=c1c2cnn(-c3ccccc3)c2ncn1CCc1ccccc1 | inactive
52 | COc1ccc(C(C(=O)NCC2CCCO2)N(C(=O)c2snc(C(N)=O)c2N)c2ccc(C)cc2)cc1OC (stereo unspecified) | inactive

Row | SMILES | Potency
53 | O=C1NC(=O)N(c2ccccc2)C(=O)/C1=C\c1ccc2c3c(cccc13)CC2 | active: 25.1 µM
54 | CCSc1nnc(N2C(=O)C(O)=C(C(=O)c3ccco3)C2c2cccc(OC)c2)s1 (stereo unspecified) | inconclusive [inhibitor, partial curve]
55 | COc1cc(OC)c(OC)cc1CNCCc1ccc(F)cc1 | inconclusive [inhibitor, partial curve]
56 | COc1ccc(-c2cc(OC(=O)c3ccccc3C)c3c(C)oc(C)c3c(=O)c2)cc1 | inconclusive [inhibitor, partial curve]
57 | CC1CC(C)CN(C(=O)COC(=O)c2ccc([N+](=O)[O-])o2)C1 (stereo unspecified) | inconclusive [inhibitor, partial curve]
58 | COc1cc2cc(C(c3nnnn3C3CCCCC3)N(C)C3CCCCC3)c(=O)[nH]c2cc1OC (stereo unspecified) | inconclusive [inhibitor, partial curve]
59 | CCOC(=O)c1c(NC(=S)Nc2cccnc2)sc(C)c1C | inconclusive [inhibitor, full curve, poor fit]
60 | COc1cc(C#Cc2c(-c3cncn3C)n(C)c3ccc(-c4cnc(OC)nc4)cc23)cc(OC)c1 | inconclusive [inhibitor, single point]
61 | CCOC(=O)c1c(C)oc2nc(C)nc(Nc3cc(C)cc(C)c3)c12 | inactive
62 | C=CCN(CC=C)C(=O)C1CCN(S(=O)(=O)c2ccc(-n3cnnn3)cc2)CC1 | inactive
63 | O=C(c1ccco1)N1CCN(C(c2ccccc2F)c2nnnn2CC2CCCO2)CC1 (stereo unspecified) | inconclusive [inhibitor, partial curve]
64 | CN(C)C(=O)CSc1nnc(-c2cnccn2)n1C | inconclusive [inhibitor, single point]
65 | COc1ccc(S(=O)(=O)N2CCCCC2)cc1N(C)S(=O)(=O)c1ccccc1 | inactive
66 | O=C(Nc1cnn(Cc2ccc(F)cc2)c1)c1cc(-c2ccco2)on1 | inconclusive [inhibitor, single point]
67 | COc1cc(C#CC#CCN2CCCCC2)ccc1O | inconclusive [inhibitor, partial curve]
68 | C#CCNC(=O)C1=C[C@@H](c2ccccc2)C[C@@H](OCc2ccc(CO)cc2)O1 | active: 44.7 µM
69 | COC(=O)CC1=C(C(=O)OC)C(c2cccs2)C(C#N)=C(N)O1 (stereo unspecified) | inconclusive [inhibitor, full curve]
70 | O=C(CCS(=O)(=O)c1ccccc1Cl)NCc1ccc(F)cc1 | active: 31.6 µM
71 | COC1=C(OC)C(=O)C(CCCCCCCCCCO)=C(C)C1=O | inconclusive [inhibitor, full curve, poor fit]
72 | Cc1ccccc1OCC(=O)NN1C(=O)C2C3C=CC(O3)C2C1=O (stereo unspecified) | active: 20 µM
73 | O=S(=O)(c1ccc(F)cc1)N1CCN(c2ncccn2)CC1 | inactive
74 | O=C(c1ccc(CS(=O)(=O)c2ccc(Br)cc2)o1)N1CCC2(CC1)OCCO2 | active: 35.5 µM
75 | CN(C)C(=O)Oc1ccc(Br)cc1C(=O)Nc1ccc(F)c(Cl)c1 | inactive
76 | CC1=C(C(=O)OC2CCCC2)C(c2ccc(C)o2)C2=C(CC(c3cccs3)CC2=O)N1 (stereo unspecified) | inconclusive [inhibitor, partial curve]
